Data published in patent US11904004B2, “Anti-CD277 antibodies” (INSTITUT NATIONAL DE LA SANTE ET DE LA RECHERCHE MEDICALE …, priority 2010, dated 2024).

Tested on: primary AML blasts
Assay: Chromium release assay, lysis of primary AML blasts by Vγ9Vδ2 T cells
Format: cell-based, human
Details: blocking/antagonist mAb added; E:T 30:1
Procedure: Effector γδ T cells were established and maintained as previously described^28. PBMC from HV were stimulated with ZOL (1 μm) and rhlL-2 (200 IU/ml) at Day 0. From Day 5, rhIL-2 was renewed every two days and cells were kept at 1.5×10^6/m1 for 15 days. NK cells were isolated using EASYSEP® Human NK cell enrichment kit (StemCell Technologies). The purity of γδ T cells and NK cells was determined by flow cytometry and respectively greater than 80% and 98%. The Burkitt lymphoma cell line, DAUDI, the human AML cell line, U937, and the erythroleukemic cell line, K562, were obtained from the American Type Culture Collection and cultured (0.5×10^6/ml) in RPMI 1640 medium with 10% FCS. […]
0.5×10^6 target cells were incubated with 50 pCi of ^51Cr (Perkin-Elmer) for AML blasts and 10 pCi for DAUDI and K562 cells for 90 minutes and mixed with effector cells in a Effector:Target (E:T) ratio of […]. After 4 hours of incubation at 37° C., 50p1 supernatant of each sample was transferred in LUMA® plates and radioactivity was determined by a gamma counter. The percentage of specific lysis was calculated using the formula [(experimental−spontaneous release/total−spontaneous release)×100] and expressed as the mean of triplicate.

B1: mAb 108.5: anti-CD277 (anti-BTN3A) antagonist antibody, VH SEQ ID NO:58, VL SEQ ID NO:60 (antibody, listed as Mus musculus, V domains shown)
VH: EVQLQQSGPELVKPGASMKISCKASGYSFTGFAINWVKQSHGQNLEWIGLIYPYNGGTTYSQRFKGKATLTVDKSSTTAYMELLSLTSEDSAVYYCARRRDGYSWFAYWGQGTLVTVSA
VL: DIVLTQSPASLAVSLGQRATISCRASESVENYGIIFMNWFQQKPGQPPKLLIFSASNQGSGVPARFNGSGSGTDFSLNIHPMEEDDTAMYFCQQSKEAPFTFGGGTKLEIK
For B1, the “ZOL-induced lysis of AML blasts by Vγ9Vδ2 T cells” value was “significantly and drastically abrogate”.
